Reference: the supplement of paper PMC3334620
Over roughly 33,000 sequences, “E-score (-0.5 to 0.5)” has its median near -0.011; the highest 2% begin near 0.28. The list shows a part of the results.

target: T1, Gcr1 (UniProt P07261); test: PBM E-score (8-mer binding enrichment) (E-score (-0.5 to 0.5)); higher = stronger / more preferred TF binding; most listed sequences are background and not binding sites; conditions: protein concentration: 100 nM; construct: GST-full length
T1 sequence: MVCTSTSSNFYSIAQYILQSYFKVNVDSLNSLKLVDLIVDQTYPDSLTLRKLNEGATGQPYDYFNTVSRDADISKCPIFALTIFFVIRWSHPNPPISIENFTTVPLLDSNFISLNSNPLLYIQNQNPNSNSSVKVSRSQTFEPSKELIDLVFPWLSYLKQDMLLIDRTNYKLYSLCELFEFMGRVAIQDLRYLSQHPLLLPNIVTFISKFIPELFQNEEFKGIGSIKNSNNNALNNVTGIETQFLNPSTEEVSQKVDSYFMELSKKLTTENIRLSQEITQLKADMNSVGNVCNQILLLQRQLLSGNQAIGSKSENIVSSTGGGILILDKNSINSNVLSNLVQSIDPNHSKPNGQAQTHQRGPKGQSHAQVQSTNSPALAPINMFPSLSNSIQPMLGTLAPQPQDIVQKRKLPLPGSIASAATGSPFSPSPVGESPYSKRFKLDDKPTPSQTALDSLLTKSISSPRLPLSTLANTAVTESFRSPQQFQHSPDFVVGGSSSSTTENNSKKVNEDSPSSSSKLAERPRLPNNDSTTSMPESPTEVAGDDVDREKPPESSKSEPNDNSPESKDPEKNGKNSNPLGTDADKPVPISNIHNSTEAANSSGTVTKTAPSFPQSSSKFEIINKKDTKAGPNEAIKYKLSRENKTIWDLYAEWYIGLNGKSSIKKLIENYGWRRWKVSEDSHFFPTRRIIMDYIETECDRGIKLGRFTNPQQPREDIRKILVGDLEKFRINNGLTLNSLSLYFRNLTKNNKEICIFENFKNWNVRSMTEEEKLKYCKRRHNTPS
Method in brief: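 The E-score, a modified Wilcoxon-Mann-Whitney statistic, was computed by the Universal PBM Analysis Suite for every ungapped eight-base word pooled with its reverse complement. Scans behind it were normalised with masliner after bound GST-tagged yeast transcription factors were detected with fluorescent anti-GST. The proteins, at about 100-200 nM, had been applied to universal all-10-mer Agilent arrays made double-stranded by primer extension.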

Row | Sequence | PBM E-score
1 | CTGCAAAG | -0.205
2 | GGGGAGCA | -0.103
3 | AGCATCCA | 0.457
4 | GCAAATCC | -0.145
5 | ATGGTTAG | -0.0215
6 | CTCCACAC | 0.0816
7 | CTATCCTA | 0.0061
8 | CGGTAATC | 0.0116
9 | AAACTCGC | -0.0731
10 | AGCCCCAC | 0.176
11 | AAGAGATC | -0.169
12 | CATCTACG | -0.00848
13 | AGGTGCTC | 0.0208
14 | ATTTACCA | 0.123
15 | ACAGTTGC | 0.0975
16 | CCGCTTCC | 0.346
17 | CCACTTAA | 0.0534
18 | TCCCATAA | 0.265
19 | AACACAGT | -0.3
20 | TACCTCGA | -0.0146
21 | CAGTAACG | -0.105
22 | GCAGAGGA | -0.129
23 | ACAGTGGC | 0.00948
24 | GGGCTGGA | -0.12
25 | CGTTCAAG | -0.0619

Row | Sequence | PBM E-score
26 | AAAGCCTC | -0.0619
27 | AAGGTCGT | -0.219
28 | AGGGAGTC | -0.0187
29 | GATACCGA | 0.0304
30 | GAGAGTAC | -0.285
31 | GGATACCA | 0.33
32 | CCCTGCAC | -0.195
33 | GCATTAGA | -0.00697
34 | GCGCCGAC | 0.0685
35 | AACTTGAC | 0.115
36 | CTACGGAA | 0.0562
37 | CGGAGCTA | -0.0648
38 | AGGTGGCA | -0.15
39 | TATGCCAA | -0.104
40 | CCGGTGAA | 0.0699
41 | AGTGGAGC | 0.32
42 | ATAAATCA | 0.0483
43 | CTGCCGTA | -0.173
44 | GCACCATA | 0.228
45 | CTTTTGTC | -0.131
46 | TATCACAA | -0.053
47 | CCCTTCAC | -0.11
48 | GGTTCGTA | 0.0401
49 | GGTACTCA | 0.0227
50 | ATAGCGAT | -0.199

Row | Sequence | PBM E-score
51 | AAGGCTGT | -0.292
52 | AGGGCCTC | 0.0587
53 | CGCGGTAA | 0.108
54 | GGTCGAAA | -0.265
55 | GACCCTAC | -0.0875
56 | ATGGCATG | -0.315
57 | AGCTAAAA | -0.0393
58 | TAGAGCAA | 0.0155
59 | ATTCGAAG | -0.0287
60 | TCTTTACA | 0.203
61 | CATTTTAG | 0.235
62 | CGCTCCAC | 0.106
63 | ACAGCCTC | -0.114
64 | TATGCCGA | -0.231
65 | AATGGTGT | 0.0428
66 | CCTGTCCC | -0.0306
67 | ATATTTCC | 0.0509
68 | CAGCTCAG | -0.00015
69 | GTCGGCGA | -0.0895
70 | TGATCGAA | -0.0926
71 | AGGGACTC | -0.128
72 | AGGGCGGA | -0.261
73 | ACCAAGTG | -0.0673
74 | TAACGATA | 0.0921
75 | ATGTCGTA | 0.0794

Row | Sequence | PBM E-score
76 | AGAACCTG | 0.087
77 | GATTAAAC | -0.0725
78 | CGTGTCCA | 0.119
79 | AAGTTCGA | 0.0312
80 | CATACAGA | -0.00116
81 | ATGGAGGC | -0.129
82 | CTACGTAA | 0.0212
83 | ATGCCTGC | 0.0636
84 | AAATACCC | 0.107
85 | TATGGCAA | 0.0568
86 | CTGGAGCA | 0.0508
87 | GACGGCTC | -0.205
88 | CCTATCTC | -0.0566
89 | CTTCTGCC | 0.133
90 | GTTTGGCA | 0.164
91 | AAGGTTTG | 0.0286
92 | AGCGACAA | 0.0788
93 | GCCGTCAA | 0.0109
94 | CCTGATCC | 0.0357
95 | CGAGCTTA | -0.185
96 | AAGCTTGT | -0.144
97 | ACAGTACT | 0.00651
98 | CTCCCGTC | -0.0476
99 | AGGGCTCA | -0.298
100 | AATCGGGA | 0.0209

Row | Sequence | PBM E-score
101 | CTATCGAC | -0.0454
102 | GCAAAGCA | -0.124
103 | GCTCGGCC | -0.179
104 | GCCAAACA | 0.15
105 | TGTGCCAA | 0.0762
106 | CCTGACAG | -0.178
107 | GCCGCACC | 0.0375
108 | CCAAGCTC | -0.108
109 | CACAATAA | 0.138
110 | CAGTATTC | 0.171
111 | CAATCGGC | 0.015
112 | ACAAATTC | 0.0316
113 | AGTCAACT | -0.00698
114 | CTAGTGCA | -0.201
115 | CTGTACGC | -0.222
116 | GCCGAAAA | 0.116
117 | TAGGGTAA | 0.0774
118 | CGCCATTC | 0.0469
119 | ATCATGAT | -0.0482
120 | ACGTGAAA | 0.174
121 | ACCCACTA | 0.118
122 | GTGCTCAA | 0.0993
123 | CATCGAGG | -0.118
124 | AGTGCCCC | -0.113
125 | CCTCCCCC | -0.113

Row | Sequence | PBM E-score
126 | GGTCATAA | -0.11
127 | ACGTCAAG | 0.0115
128 | AAGGCACA | -0.0328
129 | CCGTGCAC | -0.268
130 | AAATGCCA | 0.0822
131 | AGAAAGTA | 0.144
132 | GGCGCGAC | 0.075
133 | ATTATTTA | 0.148
134 | ATATTCGA | -0.185
135 | CCTTACTA | -0.0708
136 | ACACTGTA | -0.0721
137 | TCCCAGAA | 0.22
138 | TCTCTCCA | -0.168
139 | ATCCTCCC | -0.143
140 | CATTACCA | 0.0152
141 | AGGCGGGG | 0.0867
142 | CAAGGACC | -0.118
143 | ACGTGTAA | 0.127
144 | AAGCGCAG | 0.0464
145 | ACAGATAA | -0.153
146 | CTCCGTTA | -0.134
147 | AATCAATC | 0.15
148 | GATGTTAA | 0.275
149 | CCCGAATC | 0.148
150 | TCGCCTCA | -0.0606

Row | Sequence | PBM E-score
151 | GTATGCGA | 0.291
152 | AGCGTACC | -0.17
153 | GACGGGGA | 0.0449
154 | CGCGGGCC | -0.177
155 | CCATTCAG | -0.0302
156 | CAGATGCC | 0.217
157 | ACGTGAAC | 0.0428
158 | ATTGTGGA | 0.184
159 | CGTGGAAC | -0.113
160 | GCTTTGAA | -0.0279
161 | TGATCCCA | 0.065
162 | CACTACAG | 0.04
163 | GGTAACCA | 0.0703
164 | CGGAGTAC | -0.243
165 | ATGTAGTC | -0.111
166 | TCGGTACA | 0.0342
167 | CGCACTTA | -0.0345
168 | ACGTCAGG | -0.184
169 | CATCGGGG | -0.116
170 | AAAGGCTG | -0.022
171 | CTGATCAC | 0.0306
172 | AAGAACGA | 0.081
